# Results published in PubChem BioAssay AID894 (National Center for Advancing Translational Sciences (NCATS), 2007).
# “And” between values parts separate entries of the source, which are not always exact repeats. Equal entries are not always repeated. Out of some 150,000 compounds screened, about 6,500 (4.3%) were called active. The shares of active, inactive and inconclusive entries below differ from those in the screen. Calls come from the whole dose curve; as a rule, active = well fitted inhibition curve with a large enough effect (not every such curve was filed as active); inconclusive = small, poorly fitted or top-dose-only effect, or another doubt; inactive = no such curve, though single readings can be large or run the other way. A potency beside an inconclusive call is a rough fit, not a confirmed value.
# Target: 15-hydroxyprostaglandin dehydrogenase [NAD(+)] (Homo sapiens) (UniProt P15428)
# Sequence of UniProt P15428 (P15428 whole entry, looked up): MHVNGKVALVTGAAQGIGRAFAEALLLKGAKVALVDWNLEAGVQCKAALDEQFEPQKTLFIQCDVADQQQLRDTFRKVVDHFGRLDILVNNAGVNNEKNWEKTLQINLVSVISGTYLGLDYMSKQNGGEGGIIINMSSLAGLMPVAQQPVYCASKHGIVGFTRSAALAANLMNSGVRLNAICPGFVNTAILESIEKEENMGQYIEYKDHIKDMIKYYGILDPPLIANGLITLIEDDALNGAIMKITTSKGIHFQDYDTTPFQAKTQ
# Assay: qHTS Assay for Inhibitors of HPGD (15-Hydroxyprostaglandin Dehydrogenase)
# Details: purified HPGD, NADH fluorescence kinetic, PGE2 substrate; activity change, negative = inhibition: active compounds read low
# Procedure, shortened: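 NADH formation kinetics: reaction with 30 uM PGE2 and 1 mM NAD+ (final), 20 nM enzyme, Tris-HCl pH 8 with Tween 20, after 15 min compound preincubation at room temperature. Fluorescence change, last versus first of five reads.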
# % is set by controls: 0 for no effect and ±100 for the full control effect; potency is the fitted concentration of half-maximal effect; tags give direction and shape of the fitted curve.
SMILES,"activity change, negative = inhibition",Potency
Cc1cccc(NC(=O)Cn2cnc3sc(C)c(S(=O)(=O)N4CCC(C)CC4)c3c2=O)n1,inactive: -13.8%,–
COc1ccc(-c2csc3nc(-c4ccc(C)cc4)oc(=O)c23)cc1OC,–,"inconclusive: 35.5 µM [inhibitor, partial curve]"
Fc1ccc(-c2cc3nc(-c4ccccc4)cc(N4CCN(CCN5CCOCC5)CC4)n3n2)cc1,–,"inconclusive: 25.1 µM [inhibitor, partial curve]"
CC(Sc1nc2cc([N+](=O)[O-])ccc2n1-c1ccc(F)cc1)C(=O)NCc1ccc2c(c1)OCO2 (centres undefined),–,"inconclusive: 14.1 µM [inhibitor, partial curve]"
CCOC(=O)N1CCN(C(=O)CN(C2CCCCC2)S(=O)(=O)c2c(C)cc(C)cc2C)CC1,inactive: -6.06%,–
CN(C)c1ccc(-c2nc(N(C)Cc3ccco3)c3ccccc3n2)cc1,–,"inconclusive: 28.2 µM [inhibitor, partial curve]"
N#Cc1nc(-c2ccccc2)oc1NCCN1CCCCC1,–,"inconclusive: 28.2 µM [inhibitor, partial curve]"
NC(=S)NNC(=O)Nc1ccc(Cl)c(Cl)c1,inactive: -19.8%,–
CCNC(=O)N(C(=O)NCC)n1c(C)nnc1C,inactive: -10.3%,–
COc1ccc(-c2cc(C(F)(F)F)nc(N3CCCCCC3)n2)cc1,–,"inconclusive: 25.1 µM [inhibitor, single point]"
COC(=O)c1cc(Cl)c(NC(=O)/C=C/c2ccc(Cl)cc2)cc1OC,–,"inconclusive: 17.8 µM [inhibitor, partial curve]"
O=C(O)c1ccc(Sc2nnc(-c3cccc(Br)c3)o2)c([N+](=O)[O-])c1,–,active: 14.1 µM
O=S(=O)(c1ccccc1Cl)N1CCCC1c1nc(-c2ccc(Cl)cc2)no1 (centres undefined),inactive: -13.2%,–
O=C(CCCCCN1C(=O)c2ccccc2C1=O)NCc1ccco1,–,active: 11.2 µM
CCc1c(C)sc(NC(=O)Cn2nc(C(F)(F)F)c3c2CCCC3)c1C#N,–,"inconclusive: 17.8 µM [inhibitor, single point]"
CCCn1c(-c2ccc(OC)cc2)nc2ccccc21,inactive: -17.1%,–
O=C(N/N=C\C=C\c1ccco1)c1cc(-c2ccc3ccccc3c2)n[nH]1,–,active: 31.6 µM
COc1ccc2nc(Nc3ccc4c(c3)OCO4)sc2c1,inactive: -23.8%,–
Nc1nc(-c2cccc(NS(=O)(=O)c3ccccc3)c2)cs1,–,active: 11.2 µM
CN(C(=S)Nc1ccc(Oc2ccccc2)cc1)c1ccc(O)cc1,–,"inconclusive: 3.98 µM [inhibitor, full curve, poor fit]"
CCN(CCCNC(=O)COc1cc(=O)n(C)c2ccccc12)c1ccccc1,inactive: -9.2%,–
CC1Cc2ccccc2N1C(=O)CSC1=NCCS1 (centres undefined),inactive: -17.5%,–
COc1cc2c(C(=O)Nc3ccc4c(c3)OCO4)cn(CC(C)C)c(=O)c2cc1OC,inactive: -3.33%,–
CC(=O)c1cc(F)c(N2CCN(C(=O)COc3ccc(F)cc3)CC2)cc1C,inactive: -10.8%,–
O=c1[nH]c2ccc(Cl)cc2c(-c2ccccc2)c1N1CCN(c2ccccn2)CC1,–,"inconclusive: 31.6 µM [inhibitor, partial curve]"

SMILES,"activity change, negative = inhibition",Potency
Cc1ccc(C(=O)COC(=O)c2cccs2)cc1,–,active: 28.2 µM
CC1CCN(C2=NC(=O)/C(=C/c3cn(-c4ccccc4)nc3-c3cccc(S(=O)(=O)N(C)C)c3)S2)CC1,–,"inconclusive: 28.2 µM [inhibitor, partial curve]"
O=C(/C=C/c1ccc(O)c(O)c1)OCCc1ccccc1,–,"inconclusive: 39.8 µM [inhibitor, single point] and inconclusive: 14.1 µM [inhibitor, partial curve]"
COc1cccc(Cn2c(=O)c(-c3cccs3)nc3cnc(Nc4ccccc4)nc32)c1,inactive: -5.41%,–
COc1ccc(C(=O)N/N=C(/C)c2ccc(N3CCCCC3)cc2)cc1,–,"inconclusive: 28.2 µM [inhibitor, partial curve]"
COc1ccc(CC(NC(C)=O)C(=O)NC2CCN(c3c(Cc4ccccc4)c(C)nc4ncnn34)CC2)cc1OC (centres undefined),–,"inconclusive: 28.2 µM [inhibitor, partial curve]"
O=C(CCC(=O)Nc1ccccc1)N/N=C/c1ccncc1,–,active: 22.4 µM
COC(=O)c1ccc(-n2c(C)cc(C(=O)COC(=O)CNS(=O)(=O)c3ccc(C)cc3)c2C)cc1,inactive: -9.2%,–
O=C(/C=C/c1ccc(Cl)cc1Cl)n1cccn1,inactive: -21%,–
O=C(COC(=O)COc1ccccc1[N+](=O)[O-])Nc1cccc(Br)c1,inactive: -3.23%,–
O=C(NC(=S)NCCN1CCOCC1)c1ccc(Cl)cc1,inactive: -4.68%,–
C/C(=N\Nc1ccc(F)cc1)c1ccncc1,inactive: -25.1%,–
COc1ccc(C2=Nn3c(nnc3-c3ccncc3)SC2)cc1OC,–,"inconclusive: 25.1 µM [inhibitor, partial curve]"
O=S(=O)(Cc1ccccc1Cl)CC(O)COc1ccccc1Cl (centres undefined),–,active: 11.2 µM
CCCCc1c(O)c2ccccc2n(CCCC)c1=O,–,"inconclusive: 31.6 µM [inhibitor, partial curve]"
COc1cccc(-n2nnc3c(=O)n(CC(=O)N4CCC(C)CC4)cnc32)c1,–,"inconclusive: 17.8 µM [inhibitor, partial curve]"
Cc1nc(Nc2ccc3c(c2)OCCO3)c2oc3ccccc3c2n1,–,"inconclusive: 35.5 µM [inhibitor, partial curve]"
O=C(NCCCc1ccccc1)c1cccc([N+](=O)[O-])c1,–,"inconclusive: 25.1 µM [inhibitor, single point]"
COc1ccc(-c2ccnc(SCC(=O)Nc3ccccn3)n2)cc1,–,"inconclusive: 35.5 µM [inhibitor, single point]"
O=S(=O)(Nc1ccc(-n2cccc2)cc1)c1ccccc1,–,"inconclusive: 39.8 µM [inhibitor, single point]"
COc1ccc(C(=O)Nc2ccc(S(=O)(=O)NCc3ccco3)cc2)cc1OC,inactive: -21.5%,–
Cc1ccc(NCc2cccnc2)c(Br)c1,inactive: -4.06%,–
S=C(NCc1ccccn1)Nc1ccc(Cl)c(Cl)c1,–,active: 15.8 µM
C=CCn1c(=N)c(C(=O)OC)cc2c(=O)n3cccc(C)c3nc21,–,"inconclusive: 11.2 µM [inhibitor, partial curve]"
COCCNC(=S)Nc1ccc2nsnc2c1,–,"inconclusive: 25.1 µM [inhibitor, partial curve]"

SMILES,"activity change, negative = inhibition",Potency
O=C1C2C3c4ccccc4C(c4ccccc43)C2c2nc3ccccc3n21 (centres undefined),inactive: -5.17%,–
CC(=O)OCC(CCn1cnc2cnc(N)nc21)COC(C)=O,–,"inconclusive: 22.4 µM [inhibitor, partial curve]"
CCOc1cccc(C(=O)NC(=S)Nc2ccccc2)c1,inactive: -19.6%,–
O=C(Nc1nc(-c2cc3ccccc3oc2=O)cs1)c1ccco1,–,"inconclusive: 17.8 µM [inhibitor, partial curve]"
CCOc1ccc(N(CC(=O)Nc2ccc(OC)cc2)S(C)(=O)=O)cc1,inactive: -9.83%,–
CC(c1ccccc1)n1cnc2ccccc21 (centres undefined),–,"inconclusive: 31.6 µM [inhibitor, single point]"
C=CCNC(=S)NNC(=O)COc1ccc(Cl)cc1Cl,inactive: -26.9%,–
COc1ccc2[nH]c(=O)c(C(c3nnnn3C3CCCC3)N3CCN(Cc4ccc5c(c4)OCO5)CC3)cc2c1 (centres undefined),–,"inconclusive: 28.2 µM [inhibitor, partial curve]"
CC1(C)CC2CC(C)(CN2S(=O)(=O)c2ccc(C(=O)Nc3ccc(Cl)c(S(=O)(=O)N4CCOCC4)c3)cc2)C1 (centres undefined),–,"inconclusive: 31.6 µM [inhibitor, single point]"
Cc1ccc(-n2c([C@@H]3C[C@H]3c3ccccc3)n[nH]c2=S)cc1,–,"inconclusive: 12.6 µM [inhibitor, partial curve]"
Cc1ccco1,inactive: -8.19%,–
O=C(C1CCC1)N1CCN(Cc2ccccc2)CC1,inactive: -5.77%,–
CCCCc1c(C)nc2ccc(Br)cc2c1SCCC#N,inactive: -11.9%,–
COc1ccc2c(c1)c(C(=O)N/N=C/c1ccc(O)c(O)c1)c(C)n2C,–,"inconclusive: 35.5 µM [inhibitor, single point]"
CC(C)(C)c1cc(C(c2cccnc2)N2CCN(CCO)CC2)cc(C(C)(C)C)c1O (centres undefined),–,active: 14.1 µM
COc1ccc(C(=O)/C=C/Nc2cccc(O)c2)cc1,–,"inconclusive: 39.8 µM [inhibitor, single point]"
O=c1c2ccccc2sn1-c1ccc(S(=O)(=O)N2CCCC2)cc1,–,active: 0.708 µM
O=C(Nc1ccc(-n2nncc2-c2ccco2)cc1)c1ccc(F)cc1,inactive: -21%,–
N#CC1=C(N)NC(SCC(=O)Nc2ccccc2)=C(C#N)C12CCCC2,–,active: 17.8 µM
O=C(Nc1nnc(CSCc2ccc(F)cc2)s1)c1ccc([N+](=O)[O-])cc1,–,"inconclusive: 25.1 µM [inhibitor, partial curve]"
Cc1occc1C(=O)NN=C1C2CC3CC(C2)CC1C3,inactive: -6.66%,–
COc1ccc2nc(SCC(=O)N(C)C3CCCCC3)c(C#N)cc2c1,–,"inconclusive: 14.1 µM [inhibitor, partial curve]"
COc1ccc([C@H]2c3cc(OC)c(OC)cc3C[C@@H](C)[C@@H]2C)cc1OC,inactive: -2.43%,–
COC(=O)c1sc(N)c(C(=O)OC)c1COC(=O)C1CC(=O)N(Cc2ccco2)C1 (centres undefined),–,"inconclusive: 20 µM [inhibitor, partial curve]"
